Data from PubChem BioAssay (NCATS).
Inconclusive means that the source gave no clear call. Such entries were picked first, then a sample of the others. For some of these results: A potency beside an inconclusive call is a rough fit, not a confirmed value. Activity calls are given as the source filed them. Calls follow the shape of the dose curve; as a rule, active = well fitted cell-killing curve with a large enough effect; inconclusive = small, poorly fitted or top-dose-only effect, or effect the other way; inactive = flat fitted curve, though single readings scatter.

Columns and labels:
Assay in all cases: Primary qHTS to identify gynecologic anti-cancer compounds using libraries of approved drugs and bioactive compounds (AID 1345084); also: nearly all actives have a fitted effect of over 55% in size
Conditions in all cases: Gynecologic cancer cell panel viability, ATPlite luminescence, 48 h; series mostly up to 57.5 µM
OV90 = test system: OV90
Procedure, shortened: (§1)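 ATP-based viability (ATPlite), 1,000 cells/well, 16 h pre-incubation, 48 h compound at 37 C, 5% CO2, 15 min RT before read.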

PA-1 = test system: PA-1
Procedure, shortened: as §1

SKOV3 = test system: SKOV3
Procedure, shortened: as §1

Tov-21-G = test system: Tov-21-G
Procedure, shortened: as §1

Tov112D = test system: Tov112D
Procedure, shortened: as §1
% is scaled to controls: 0 for no effect and ±100 for the full control effect; potency is read from the fitted curve at half-maximal effect; tags tell the direction and shape of the fitted curve.

`CC(C(=O)O)c1ccc2c(c1)CC(=O)c1ccccc1S2` (stereo not drawn) was tested. Which Potency (OV90) did it give?
Its Potency is “inactive”.

And the Potency (PA-1)?
The Potency was “inactive”.

And the Potency (SKOV3)?
Its Potency is “inactive”.

And the Potency (Tov-21-G)?
The Potency was inconclusive: 25.1 µM [rising, single point].

And the Potency (Tov112D)?
The Potency was “inactive”.

What does the source list for `CCc1cccc(CC)c1NC(=O)N1Cc2[nH]nc(NC(=O)c3ccc(N4CCN(C)CC4)cc3)c2C1`?
Potency (PA-1): inconclusive: 2.51 µM [cytotoxic, full curve, poor fit]; Potency (Tov-21-G): active: 12.6 µM; Potency (Tov112D): inconclusive: 1.12 µM [cytotoxic, full curve]

With `Cc1c(O)cccc1C(=O)N[C@@H](CSc1ccccc1)[C@H](O)CN1C[C@H]2CCCC[C@H]2C[C@H]1C(=O)NC(C)(C)C` as the compound, how does the Potency (PA-1) read?
The Potency was “inactive”.

What about the Potency (SKOV3) of the same compound?
The Potency was inconclusive: 7.08 µM [rising, single point].

`Nc1ccc(C(=O)NCC(=O)O)cc1` was tested. Which Potency (SKOV3) did it give?
The Potency was inconclusive: 7.08 µM [rising, full curve, poor fit].

`C=CCc1ccc(O)c(OC)c1` was tested. Which Potency (PA-1) did it give?
The Potency was “inactive”.

What about the Potency (SKOV3) of the same compound?
The Potency was inconclusive: 3.98 µM [rising, single point].

Which Potency (PA-1) does the source give for `CN(C(=O)CCCOc1ccc2[nH]c(=O)ccc2c1)C1CCCCC1` here?
Its Potency is inconclusive: 8.91 µM [cytotoxic, partial curve, poor fit].

And the Potency (SKOV3)?
The Potency was inconclusive: 39.8 µM [cytotoxic, single point].

For `Oc1c(I)cc(I)c2cccnc12`, which Potency (PA-1) is on record?
Its Potency is inconclusive: 25.1 µM [cytotoxic, single point].

And the Potency (Tov-21-G)?
The Potency was inconclusive: 31.6 µM [cytotoxic, single point].

And the Potency (Tov112D)?
Its Potency is “inactive”.

With `CCN(CC)CCNC(=O)c1c(C)[nH]c(/C=C2\C(=O)Nc3ccc(F)cc32)c1C` as the compound, how does the Potency (PA-1) read?
Its Potency is active: 10 µM.

What about the Potency (SKOV3) of the same compound?
The Potency was active: 8.91 µM.

And the Potency (Tov-21-G)?
The Potency was inconclusive: 8.91 µM [cytotoxic, full curve].

With `Cc1c(C)c2c(c(C)c1O)CCC(C)(COc1ccc(CC3SC(=O)NC3=O)cc1)O2` (stereo not drawn) as the compound, how does the Potency (SKOV3) read?
The Potency was inconclusive: 2.24 µM [rising, single point].

With `Cc1cc(N)c2cc(NC(=O)Nc3ccc4nc(C)cc(N)c4c3)ccc2n1` as the compound, how does the Potency (PA-1) read?
The Potency was “inactive”.

What about the Potency (SKOV3) of the same compound?
Its Potency is “inactive”.

And the Potency (Tov-21-G)?
The Potency was inconclusive: 39.8 µM [cytotoxic, single point].

`Cc1c(NC(=O)c2cccnc2)c(=O)n(-c2ccccc2)n1C` was tested. Which Potency (SKOV3) did it give?
The Potency was inconclusive: 14.1 µM [rising, partial curve].

Which results are given for `O=C(O)c1ccc(Nc2ncc3c(n2)-c2ccc(Cl)cc2C(c2c(F)cccc2F)=NC3)cc1`?
Potency (PA-1): inconclusive: 1.26 µM [cytotoxic, full curve, poor fit]; Potency (Tov112D): inconclusive: 0.891 µM [cytotoxic, partial curve, poor fit]

With `CC(C)(Sc1cc(C(C)(C)C)c(O)c(C(C)(C)C)c1)Sc1cc(C(C)(C)C)c(O)c(C(C)(C)C)c1` as the compound, how does the Potency (PA-1) read?
Its Potency is “inactive”.

And the Potency (Tov-21-G)?
The Potency was “inactive”.

Which results are given for `CN1CCc2c(n(Cc3ccc(C(=O)NO)cc3)c3ccccc23)C1`?
Potency (PA-1): inconclusive: 14.1 µM [cytotoxic, partial curve]; Potency (SKOV3): inconclusive: 20 µM [cytotoxic, single point]; Potency (Tov-21-G): inconclusive: 31.6 µM [cytotoxic, partial curve, poor fit]

For `CN(C)c1ccc(-c2nc3ncc(Cl)c(N4CCN(CC(=O)Nc5nccs5)CC4)c3[nH]2)cc1`, which Potency (PA-1) is on record?
Its Potency is inconclusive: 2.24 µM [cytotoxic, single point].

What about the Potency (SKOV3) of the same compound?
The Potency was inconclusive: 3.16 µM [cytotoxic, single point].

And the Potency (Tov-21-G)?
Its Potency is inconclusive: 3.98 µM [cytotoxic, single point].

And the Potency (Tov112D)?
Its Potency is inconclusive: 1.41 µM [cytotoxic, full curve].

Which results are given for `O=C1OCCN1/N=C/c1ccc([N+](=O)[O-])o1`?
Potency (PA-1): inconclusive: 0.1 µM; Potency (SKOV3): inactive

With `CC(=O)OCC(=O)NCCCOc1cccc(CN2CCCCC2)c1` as the compound, how does the Potency (SKOV3) read?
The Potency was inconclusive: 3.55 µM [rising, partial curve, poor fit].

`Cc1ccc(C(C)C)cc2c(C)ccc1-2` was tested. Which Potency (SKOV3) did it give?
Its Potency is inconclusive: 39.8 µM [cytotoxic, single point].

Which Potency (SKOV3) does the source give for `CCn1cc(C(=O)O)c(=O)c2cc(F)c(N3CCN(C)CC3)cc21` here?
The Potency was “inactive”.

What does the source list for `C#C[C@]1(O)CC[C@H]2[C@@H]3CCC4=C/C(=N/O)CC[C@@H]4[C@H]3CC[C@@]21CC`?
Potency (PA-1): inconclusive: 31.6 µM [cytotoxic, single point]; Potency (Tov-21-G): inconclusive: 28.2 µM [rising, partial curve]; Potency (Tov112D): inactive

How did the Potency (SKOV3) turn out when `O=C(O)CNC(=O)c1ccccc1` was run?
The Potency was “inactive”.

Which Potency (SKOV3) does the source give for `CC[C@H]1OC(=O)C[C@@H](O)[C@H](C)[C@@H](O[C@@H]2O[C@H](C)[C@@H](O)[C@H](N(C)C)[C@H]2O)[C@@H](CCN2C[C@H](C)C[C@H](C)C2)C[C@@H](C)C(=O)/C=C/C(C)=C/[C@@H]1CO[C@@H]1O[C@H](C)[C@@H](O)[C@@H](OC)[C@H]1OC` here?
The Potency was “inactive”.

How did the Potency (SKOV3) turn out when `CC1(C)O[C@@H]2[C@@H](CO[C@@]3(COS(N)(=O)=O)OC(C)(C)O[C@@H]23)O1` was run?
The Potency was “inactive”.

What does the source list for `NC(=O)n1c(O)c(C(=O)c2cccs2)c2cc(Cl)ccc21`?
Potency (PA-1): inconclusive: 0.501 µM [cytotoxic, full curve, poor fit]; Potency (SKOV3): inactive

Which Potency (SKOV3) does the source give for `COc1cnc(NS(=O)(=O)c2ccc(N)cc2)nc1` here?
The Potency was “inactive”.

Which results are given for `N#Cc1c(O)c2c(-c3ccc(-c4ccccc4O)cc3)csc2[nH]c1=O`?
Potency (PA-1): inactive; Potency (SKOV3): inactive

Which Potency (SKOV3) does the source give for `C#C[C@]1(O)CC[C@H]2[C@@H]3[C@H](C)CC4=C(CCC(=O)C4)[C@H]3CC[C@@]21C` here?
The Potency was “inactive”.

How did the Potency (SKOV3) turn out when `NCCCC(O)(P(=O)(O)O)P(=O)(O)O` was run?
The Potency was “inactive”.

`O=C(NCC1CN(c2ccc(N3CCOCC3=O)cc2)C(=O)O1)c1ccc(Cl)s1` (stereo not drawn) was tested. Which Potency (SKOV3) did it give?
The Potency was inconclusive: 12.6 µM [cytotoxic, single point].

How did the Potency (SKOV3) turn out when `OCCn1cc(-c2cnc3nnn(Cc4ccc5ncccc5c4)c3n2)cn1` was run?
Its Potency is “inactive”.

What does the source list for `O=C(c1ccc(OCCN2CCCCC2)cc1)c1c(-c2ccc(O)cc2)sc2cc(O)ccc12`?
Potency (PA-1): inconclusive: 39.8 µM [cytotoxic, single point]; Potency (SKOV3): inconclusive: 35.5 µM [cytotoxic, partial curve, poor fit]

With `Cc1cnc(CNC(=O)c2c(=O)c3ccc(N4CCCN(C)CC4)nc3n3c2sc2ccccc23)cn1` as the compound, how does the Potency (PA-1) read?
The Potency was inconclusive: 0.562 µM [cytotoxic, full curve].

What about the activity change, negative = cytotoxicity (SKOV3) of the same compound?
The activity change, negative = cytotoxicity was inactive: -5.43% [at 11.6 µM].

`Cc1cccc(C)c1NC(=O)CN1CCN(CCCC(c2ccc(F)cc2)c2ccc(F)cc2)CC1` was tested. Which Potency (PA-1) did it give?
Its Potency is inconclusive: 39.8 µM [cytotoxic, single point].

And the Potency (SKOV3)?
The Potency was inconclusive: 39.8 µM [cytotoxic, single point].

How did the Potency (SKOV3) turn out when `O=C(c1cc(Cc2n[nH]c(=O)c3ccccc23)ccc1F)N1CCN(C(=O)C2CC2)CC1` was run?
The Potency was inconclusive: 0.316 µM [rising, partial curve, poor fit].

Which results are given for `C[C@@H]1C[C@H]2[C@@H]3C[C@H](F)C4=CC(=O)C(Cl)=C[C@]4(C)[C@@]3(F)[C@@H](O)C[C@]2(C)[C@@]1(O)C(=O)CO`?
Potency (PA-1): inactive; Potency (Tov-21-G): inactive

Which results are given for `CCN(CC)C(=O)/C(C#N)=C/c1cc(O)c(O)c([N+](=O)[O-])c1`?
Potency (PA-1): inconclusive: 39.8 µM [cytotoxic, single point]; Potency (Tov112D): inconclusive: 28.2 µM [cytotoxic, partial curve, poor fit]

Which Potency (SKOV3) does the source give for `C[C@]12C=CC(=O)C=C1CC[C@H]1[C@@H]3C[C@@H](O)[C@](O)(C(=O)CO)[C@@]3(C)C[C@H](O)[C@@]12F` here?
Its Potency is “inactive”.

`NC(CS)C(=O)O` (stereo not drawn) was tested. Which Potency (SKOV3) did it give?
Its Potency is “inactive”.

How did the Potency (SKOV3) turn out when `Cc1cc(O)c(C(C)C)cc1Cl` was run?
The Potency was “inactive”.

How did the Potency (PA-1) turn out when `CC#C[C@]1(O)CC[C@H]2[C@@H]3CCC4=CC(=O)CCC4=C3[C@@H](c3ccc(N(C)C)cc3)C[C@@]21C` was run?
The Potency was “inactive”.

What about the Potency (SKOV3) of the same compound?
Its Potency is “inactive”.
